This list was built around the results that the source calls inconclusive (neither active nor inactive); the mix of calls is not that of the screen. For some of these results: A potency beside an inconclusive call is a rough fit, not a confirmed value. Calls of active or inactive are those of the source. The call rests on the fitted dose curve; in most records, active means well fitted curve in the direction sought with a large enough effect; inconclusive means small, poorly fitted or top-dose-only effect, or another doubt; inactive means no such curve, though single readings can be large; an effect the other way counts as inactive or inconclusive.
Experiments:
[1] = OV-KATE Cancer Cell Toxicity qHTS against the NCATS CANVASS Library (AID 1347345); further: potency means the concentration at half of the fitted maximal effect
Outline: (§1)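 In this cytotoxicity screen, 1000 cells per well rested 4 hours, then received compound (11 concentrations) for a 72-hour incubation; an ATP-dependent luminescent signal (CellTiter-Glo) was the endpoint.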

[2] = UWB1.289 Cancer Cell Toxicity qHTS against the NCATS CANVASS Library (AID 1347347); further: potency means the concentration at half of the fitted maximal effect; nearly all actives have a fitted effect of over 60% in size
Outline: as §1

[3] = Panc-1005 Cancer Cell Toxicity qHTS against the NCATS CANVASS Library (AID 1347349); further: potency means the concentration at half of the fitted maximal effect; nearly all actives have a fitted effect of over 60% in size
Outline: as §1

[4] = U-118MG Cancer Cell Toxicity qHTS against the NCATS CANVASS Library (AID 1347351); further: potency means the concentration at half of the fitted maximal effect
Outline: as §1

[5] = COV-362 Cancer Cell Toxicity qHTS against the NCATS CANVASS Library (AID 1347352); further: potency means the concentration at half of the fitted maximal effect
Outline: (§2)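 Cells were seeded at 1000 per well and allowed to settle 4 hours at 37 degrees C before pin transfer of compounds as an 11-point series. Viability was read by CellTiter-Glo luminescence after 72 hours' exposure.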

[6] = HEK-293 Cancer Cell Toxicity qHTS against the NCATS CANVASS Library (AID 1347355); further: potency means the concentration at half of the fitted maximal effect; nearly all actives have a fitted effect of over 65% in size
Outline: as §2

[7] = KB-8-5-11 Cancer Cell Toxicity qHTS against the NCATS CANVASS Library (AID 1347364); settings: activity change, negative = toxicity: at 46.1 µM (top of the series); further: nearly all actives have a fitted effect of over 75% in size; further: potency means the concentration at half of the fitted maximal effect
Outline: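 KB-8-5-11 cells (500/well) in DMEM + 10% FBS were exposed to compounds in an 11-point qHTS series for 72 hr at 37C, 5% CO2. Viability was read by CellTiter-Glo luminescence.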

[8] = G06 Cancer Cell Toxicity qHTS against the NCATS CANVASS Library (AID 1347368); further: potency means the concentration at half of the fitted maximal effect; nearly all actives have a fitted effect of over 60% in size
Outline: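 G06 dog glioma cells seeded at 500 cells/well were exposed to compounds (11-point qHTS series) for 72 hr at 37C, 5% CO2; viability read as ATP content by CellTiterGlo luminescence.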

[9] = qHTS for ATAD5 Antagonist screened against the NCATS CANVASS Library (AID 1347370); further: potency means the concentration at half of the fitted maximal effect; nearly all actives have a fitted effect of over 65% in size
Outline: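 HEK293T cells with a stably integrated ATAD5-controlled luciferase reporter were exposed to compounds (11-pt) alongside 10 uM 5-fluorouridine as ATAD5 stabilizer for 16hr at 37C. Viability was read by CellTiter-Fluor fluorescence, then ATAD5 by luminescence.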

[10] = J3T Cancer Cell Toxicity qHTS against the NCATS CANVASS Library (AID 1347371); further: potency means the concentration at half of the fitted maximal effect
Outline: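 J3T dog glioma cells (500 cells/well) were exposed to compounds in an 11-point series for 72 hr at 37C, 5% CO2. Cytotoxicity was read as ATP content by CellTiterGlo luminescence.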

[11] = molecular target: Nuclear receptor subfamily 1 group I member 3 (Homo sapiens) (UniProt Q14994); test: qHTS for Constitutive Androstane Receptor (CAR) Antagonist screened against the NCATS CANVASS Library (AID 1347372); further: potency means the concentration at half of the fitted maximal effect
Chain of UniProt Q14994 (Q14994 whole entry, looked up): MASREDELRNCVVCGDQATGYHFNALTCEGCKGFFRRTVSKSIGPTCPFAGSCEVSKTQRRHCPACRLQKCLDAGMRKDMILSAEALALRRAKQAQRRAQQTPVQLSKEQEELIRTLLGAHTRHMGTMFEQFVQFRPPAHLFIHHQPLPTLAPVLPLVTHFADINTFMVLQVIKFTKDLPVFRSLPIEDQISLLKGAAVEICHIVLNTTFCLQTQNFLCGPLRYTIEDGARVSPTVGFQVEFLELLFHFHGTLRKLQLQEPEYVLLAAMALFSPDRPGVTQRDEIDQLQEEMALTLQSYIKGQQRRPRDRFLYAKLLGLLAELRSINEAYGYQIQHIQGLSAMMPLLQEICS
Outline: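 HepG2 cells stably carrying hCAR and a CYP2B6-2.2kb luciferase reporter were exposed to compounds plus 50 nM CITCO for 24hr at 37C. CAR activity was read by ONE-Glo luminescence, with viability measured first by CellTiter-Fluor.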

[12] = qHTS for Inflammasome Signaling Inhibitors: IL-1-beta AlphaLISA screen against the NCATS CANVASS Library (AID 1347379);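 further: human THP-1 cells primed with LPS then triggered with ATP; secreted IL-1B measured as AlphaLISA emission at 615 nm; lower signal means less IL-1B release which is the wanted effect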
Outline: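 Human THP-1 cells were pretreated 1 hr at 37 °C with compounds (up to 57.5 uM final), then stimulated with LPS (250 ng/mL final) and ATP (1.25 mM final). Secreted IL-1B was read by AlphaLISA after 16 hr.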

[13] = Secretion counterscreen for inhibitors of the SERCaMP assay screened against the NCATS CANVASS Library (AID 1347390); settings: SH-SY5Y constitutive GLuc secretion, luminescence, 20 h; activity change, negative = inhibition: at 76.6 µM (top of the series)
Outline: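 SH-SY5Y cells with constitutively secreted GLuc reporter, 1000 cells/well, treated 20 h at 37C with compounds at 0.001 - 77 uM final; secreted luciferase read as luminescence after coelenterazine; Brefeldin A as positive control.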

[14] = qHTS for activators of Nrf2/ARE signaling pathway screened against the NCATS CANVASS Library (AID 1347391); further: potency means the concentration at half of the fitted maximal effect; nearly all actives have a fitted effect of over 60% in size
Outline: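 ARE-bla HepG2 beta-lactamase reporter cells, 2000 cells/well, were preincubated 5 h, then exposed to compounds (11-point series) for 16 h at 37C. CCF4 fluorescence (ex 405, em 460/530 nm) after 2 h at room temperature.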

[15] = Redox Reaction Profiling qHTS: Assay Interference Panel against the NCATS CANVASS Library (AID 1347401); further: potency means the concentration at half of the fitted maximal effect
Outline: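 Resazurin (5 uM) conversion to resorufin measured with 200 uM DTT in 50 mM HEPES pH 7.3, 50 mM NaCl. Compounds tested in 11-point qHTS series. Fluorescence (ex 525/em 598 nm) read before and after 15 min dark incubation.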

[16] = HPAF-II Cancer Cell Toxicity qHTS against the NCATS CANVASS Library (AID 1347346); further: potency means the concentration at half of the fitted maximal effect; nearly all actives have a fitted effect of over 55% in size
Outline: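 HPAF-II cells were seeded at 1000 cells/well, allowed to settle for 4 h at 37 degrees C, then exposed to compounds in an 11-point series for 72 h. Viability was read by CellTiter-Glo luminescence.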

[17] = SW1088 Cancer Cell Toxicity qHTS against the NCATS CANVASS Library (AID 1347350); further: potency means the concentration at half of the fitted maximal effect; nearly all actives have a fitted effect of over 75% in size
Outline: as §1

[18] = A2780 Cisplatin Sensitive Ovarian Cancer Cell Toxicity qHTS against the NCATS CANVASS Library (AID 1347353)
Outline: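 A2780 cisplatin-sensitive cells (750 per well) were seeded, left 4 h at 37 °C, then pin-dosed in an 11-point series. After 72 h at 37 °C/5% CO2, viability was measured as ATPLite luminescence.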

[19] = UWB1.289-WTBRCA1 Cancer Cell Toxicity qHTS against the NCATS CANVASS Library (AID 1347354); further: potency means the concentration at half of the fitted maximal effect
Outline: as §2

[20] = HEK293 18hr Apoptosis Induction qHTS against the NCATS CANVASS Library (AID 1347357); further: potency means the concentration at half of the fitted maximal effect
Outline: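 HEK293 cells (500/well, DMEM + 10% FBS) treated with an 11-point series for 18 h at 37 degrees C. Caspase-3/7 activity read by Caspase-Glo luminescence after 15 min at room temperature.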

[21] = HEK293 12hr Apoptosis Induction qHTS against the NCATS CANVASS Library (AID 1347361); further: potency means the concentration at half of the fitted maximal effect
Outline: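 HEK293 cells (500/well) were exposed to an 11-point qHTS concentration series for 12 hours at 37 degrees C. Caspase-3/7 activity was then read by DEVD-substrate luciferase luminescence after 15 min at room temperature.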

[22] = KB-3-1 Cancer Cell Toxicity qHTS against the NCATS CANVASS Library (AID 1347366); further: potency means the concentration at half of the fitted maximal effect; nearly all actives have a fitted effect of over 75% in size
Outline: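 KB-3-1 cells (500/well) in DMEM with 10% FBS were exposed to compounds for 72 h at 37C. Viability was read by CellTiter-Glo luminescence.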

[23] = MCF7 Cancer Cell Toxicity qHTS against the NCATS CANVASS Library (AID 1347369); settings: activity change, negative = cytotoxicity: at 46 µM (top of the series)
Outline: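 MCF7 cells (500/well) were exposed 72 h at 37 °C to compounds in an 11-point series. Viability was read as ATP content by CellTiterGlo luminescence.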

[24] = qHTS for Hypoxia signaling pathway (HIF-1) antagonists against the NCATS CANVASS Library (AID 1347374)
Outline: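 HRE-bla ME-180 cells (2,000/well, 0.5% dialyzed FBS) were pre-incubated 5 h, then given an 11-point compound series plus CoCl2 (60 uM solution as added) for 17 h at 37C. CCF4 β-lactamase read (ex 405, em 460/530 nm) after 2 h at RT.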

[25] = qHTS for Hypoxia signaling pathway (HIF-1) agonists against the NCATS CANVASS Library (AID 1347375); further: potency means the concentration at half of the fitted maximal effect
Outline: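 HRE-bla ME-180 cells (beta-lactamase reporter under hypoxia responsive element) in 0.5% dialyzed FBS medium, 5 h at 37C, then compound 17 h, 11-point qHTS series. CCF4-AM FRET substrate 2 h RT; 460/530 nm emission read.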

[26] = qHTS for Antimalaria activity screened against the NCATS CANVASS Library (AID 1347380); further: potency means the concentration at half of the fitted maximal effect; nearly all actives have a fitted effect of over 40% in size
Outline: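 P. falciparum Dd2-infected RBCs (2.5% hematocrit final, 0.3% parasitemia) in Albumax II RPMI were exposed to compounds in an 11-point qHTS series for 72 h at 37C under 5% O2/5% CO2, then lysed with SYBR Green.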

[27] = qHTS for Activators of p53 Stress Response Pathway screened against the NCATS CANVASS Library (AID 1347388); further: potency means the concentration at half of the fitted maximal effect
Outline: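 p53RE-bla HCT-116 cells (4000/well) were plated 5 h at 37C, exposed to compounds for 16 h at 37C over an 11-point concentration series, then loaded with CCF4 for 2 h at room temperature; 460/530 nm emission ratio read.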

[28] = qHTS for inhibitors of ER calcium dysfunction: SERCaMP assay screened against the NCATS CANVASS Library (AID 1347393); settings: SH-SY5Y GLuc-SERCaMP (Gaussia luciferase released on ER calcium loss) secretion, thapsigargin, luminescence; activity change, negative = inhibition: at 76.6 µM (top of the series) unless noted; further: potency means the concentration at half of the fitted maximal effect; nearly all actives have a fitted effect of over 40% in size
Outline: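 qHTS in SH-SY5Y reporter cells: 16 h compound pretreatment, 4 h thapsigargin, then secreted Gaussia luciferase measured by luminescence.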

[29] = Vero-766 cells viability qHTS against the NCATS CANVASS Library: Counterscreen for Zika virus inhibition assay (AID 1347394); settings: Vero 766 viability, CellTiter-Glo luminescence, 72 h; activity change, negative = cytotoxic: at 46.1 µM (top of the series)
Outline: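 Vero 766 cells (1000/well), without Zika virus, were exposed to compounds for 72 h at 37C. Viability was measured by CellTiter Glo luminescence. Media-only wells served as 100% inhibition.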

[30] = qHTS for inhibitors of Wild type Zika virus screened against the NCATS CANVASS Library (AID 1347396); further: potency means the concentration at half of the fitted maximal effect
Outline: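 Protection against wild-type Zika cytopathic effect is measured in African green monkey Vero 766 cells exposed to an 11-point compound series. Surviving cells are quantified by CellTiter Glo luminescence after 72 h.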

[31] = Viability qHTS for inhibitors of the SERCaMP assay screened against the NCATS CANVASS Library (AID 1347400); further: potency means the concentration at half of the fitted maximal effect; nearly all actives have a fitted effect of over 70% in size
Outline: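 SH-SY5Y-GLuc SERCaMP MJH297-derived cells (1000 cells/well) were pre-incubated 4 h at 37C, then exposed to compounds for 48 h. Viability was read as CellTiter-Glo luminescence; bortezomib served as positive control.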

Measured: Potency
Tags describe the fitted curve by direction and shape.

C/C1=C/[C@@H](C)[C@H](O)[C@@H](O)/C=C/CC/C=C/C(=O)O[C@@H]1[C@H](C)C(=O)/C=C/CC1CC(=O)NC(=O)C1
inconclusive: [1] 29.8 µM [cytotoxic, single point] | [2] 5.94 µM [cytotoxic, full curve] | [3] 18.8 µM [cytotoxic, single point] | [4] 23.7 µM [cytotoxic, single point] | [5] 29.8 µM [cytotoxic, single point] | [6] 33.2 µM [cytotoxic, single point] | [8] 13.2 µM [cytotoxic, partial curve] | [9] 26.3 µM [inhibitor, single point] | [10] 20.9 µM [cytotoxic, partial curve] | [13] 5.43 µM [inhibitor, partial curve] | [14] 14.8 µM [activator, partial curve] | [15] 21.5 µM [activator, partial curve]
inactive: [7] | [12]
active: [11] 2.09 µM

C=C1C[C@H]2O[C@@H]3[C@@H]4[C@H](CC[C@@](C)(O)[C@@H]42)[C@H](C)COC3(C)[C@@H](OC(=O)CCCCCCC)CC1=O (stereo not given in full)
inconclusive: [16] 29.8 µM [cytotoxic, single point] | [3] 23.7 µM [cytotoxic, single point] | [4] 23.7 µM [cytotoxic, single point] | [5] 23.6 µM [cytotoxic, single point] | [19] 29.8 µM [cytotoxic, single point] | [20] 29.6 µM [activator, single point] | [21] 33.2 µM [activator, single point] | [7] 33.2 µM [cytotoxic, single point] | [22] 37.2 µM [cytotoxic, single point] | [9] 33.1 µM [inhibitor, partial curve, poor fit] | [10] 33.2 µM [cytotoxic, single point] | [24] 29.8 µM [inhibitor, single point] | [25] 29.8 µM [activator, partial curve, poor fit] | [26] 0.133 µM [cytotoxic, partial curve, poor fit] | [27] 29.5 µM [activator, single point] | [28] 21.6 µM [inhibitor, partial curve, poor fit] | [29] 20.9 µM [cytotoxic, partial curve, poor fit] | [30] 23.3 µM [inhibitor, single point] | [31] 53.8 µM [cytotoxic, single point]
inactive: [23]
active: [1] 21.1 µM | [2] 18.8 µM | [17] 8.41 µM | [18] 13.2 µM | [13] 48.4 µM
